Laboratory results published in PubChem BioAssay AID720542 (National Center for Advancing Translational Sciences (NCATS), 2013).
The whole screen tested about 360,000 compounds, of which about 740 (0.21%) were called active. The inconclusive results got no clear call from the source; some entries with a clear call stand among them for comparison. The call rests on the fitted dose curve; in most records, active means well fitted inhibition curve with a large enough effect; inconclusive means small, poorly fitted or top-dose-only effect; inactive means no such curve, though single readings can be large or run the other way. Potencies of inconclusive entries are left out as doubtful fits.

test system: Plasmodium falciparum AMA1 (3D7) - RON2 peptide interaction; test: qHTS for Inhibitors of AMA1-RON; Towards Development of Antimalarial Drug Lead: Primary Screen; conditions: AlphaScreen AMA1-biotinylated RON2 peptide binding; activity change, negative = inhibition: at 58.2 µM (top of the series) unless noted; further: nearly all actives have a fitted effect of over 45% in size;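 on activity change, negative = inhibition: 0% = vehicle wells and -100% = peptide control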
In short: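 AMA1 (3D7) with his tag at 25 nM final met compounds first, then biotinylated RON2 peptide at 25 nM; detection used donor plus acceptor beads, 10 µg/mL apiece, read by AlphaScreen after 30 min at room temperature.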
Potency means the concentration at half of the fitted maximal effect; tags describe the fitted curve by direction and shape.

SMILES | Potency | activity change, negative = inhibition
Cn1c(=O)[nH]c2cc3ccccc3cc21 | inactive | –
O=[N+]([O-])c1ccc(/C=N/N2CCCCC2)cc1 | inconclusive [inhibitor, single point] | –
Nc1nc(-c2c[nH]c3ccccc23)cs1 | inconclusive [inhibitor, single point] | –
N#Cc1nc(-c2cccs2)oc1NCCc1ccccc1 | inactive | –
Oc1ccc(CNc2ccc(F)cc2)c2cccnc12 | inconclusive [inhibitor, single point] | –
CCS(=O)(=O)N1Cc2ccccc2CC1C(=O)Nc1ccc(OC)c(OC)c1 (stereo not given) | inactive | –
COc1ccc(CCNc2cc(C)nc3c(-c4ccc(Cl)cc4)cnn23)cc1OC | – | inactive: 29.9% [at 11.6 µM]
CCOC(=O)N1CCN(CC(=O)N2c3ccccc3Sc3ccccc32)CC1 | inconclusive [inhibitor, partial curve] | –
CC1(C)OC(c2ccccc2)=C/C(=C/C=C2C(=O)NC(=S)NC2=O)O1 | inconclusive [inhibitor, partial curve] | –
COc1cc(/C=N/N=C(\N)c2nonc2N)cc(OC)c1O | inactive | –
CN1CCN(C2=Cc3ccccc3Sc3cc(F)ccc32)CC1 | inconclusive [inhibitor, partial curve] | –
CC(=O)Nc1ccc(Oc2cnc3ccccc3n2)cc1 | inactive | –
CC(C)(C)N=C1C([N+](=O)[O-])=CC=C2C1=NC1(CCCCC1)N2O | inconclusive [inhibitor, full curve] | –
Cc1cccc(NC(=S)N(Cc2cccs2)Cc2cc3cc(C)cc(C)c3[nH]c2=O)c1 | inactive | –
C=CCn1c(N)cc(=O)nc1SCC(=O)NC(C)c1ccccc1 (stereo not given) | – | inconclusive: -1.85% [inhibitor]
Cn1c(SCc2ccccc2)nnc1-c1ccco1 | inactive | –
CCCCNc1c(CC(C)C)nc2nc(C)cc(C)n12 | inactive | –
CC(C)(C)n1cc(C(=O)c2ccccc2)cc1-c1ccccc1 | inconclusive [inhibitor, partial curve] | –
CC(CCc1ccccc1)NCc1cccc2ccccc12 (stereo not given) | inactive | –
CC1(OC(=O)c2ccc(Cl)nc2)C(=O)C=C2C=C3CCCN3C=C2C1=O (stereo not given) | inconclusive [inhibitor, single point] | –
COc1ccc(NC(=O)CSc2nnc(-c3ccccc3Cl)n2Cc2ccco2)c(OC)c1 | inactive | –
OC(COCCC12CC3CC(CC(C3)C1)C2)CN1CCCCC1 (stereo not given) | inconclusive [inhibitor, single point] | –
COc1ccc(-n2c(C)cc(C)c(C(C)=O)c2=S)cc1 | inconclusive [inhibitor, single point] | –
COc1ccccc1CN1CCN(Cc2ccc(Cl)cc2)CC1 | inconclusive [inhibitor, single point] | –

SMILES | Potency | activity change, negative = inhibition
CCC(=O)c1ccccc1OCCCCn1cncn1 | inconclusive [inhibitor, single point] | –
Cc1cc(C)[n+](C)n1CC(O)Cn1c2ccccc2c2ccccc21 (stereo not given) | inactive | –
O=C(Cn1c(NCCO)nc2ccccc21)c1ccc([N+](=O)[O-])cc1 | inconclusive [inhibitor, single point] | –
Nc1ccc2ccc(O)cc2c1 | inactive | –
N/C(=N\OC(=O)Cc1ccc([N+](=O)[O-])cc1)c1cccc(Br)c1 | inconclusive [inhibitor, single point] | –
CNc1ccccc1C(C)(C)c1cc(-c2cc(C)cc(C)c2)no1 | inconclusive [inhibitor, partial curve] | –
Cc1cc(O)ccc1-c1ccc2nncn2c1 | inconclusive [inhibitor, partial curve] | –
CC(C)OP(=O)(c1ccc(N(C)C)cc1)C(Nc1ccccc1)c1ccccc1 (stereo not given) | inconclusive [inhibitor, single point] | –
CCN(CC)C(=O)N1CCC(NC(=O)c2ccccc2)CC1 | inconclusive [inhibitor, partial curve] | –
CC(=O)Nc1ccc(-c2ccnc3c2CC(C(=O)Nc2cccc(N(C)C)c2)O3)cc1 (stereo not given) | inconclusive [inhibitor, single point] | –
O=C(C[C@H]1C[C@H](C(=O)N2CCOCC2)[C@@]2(CCC3CCCC3)c3[nH]c4cc(-c5ccco5)ccc4c3CCN2C1=O)NCC12CC3CC(CC(C3)C1)C2 | inconclusive [inhibitor, single point] | –
CSC1=C(C#N)C2(CCCCC2)C(C(=O)Nc2ccccc2)=C(C)N1 | inconclusive [inhibitor, single point] | –
Cc1nc2ccccn2c1C(=O)N/N=C/c1ccc([N+](=O)[O-])o1 | inconclusive [inhibitor, full curve, poor fit] | –
CC1(C)CC(=O)C=C(c2ccc(-c3cccc4c3sc3ccccc34)cc2)C1=O | inconclusive [inhibitor, partial curve, poor fit] | –
CCCc1cc(C(=O)N2CCCC(Nc3ccc(C)c(C)c3)C2)n(C)n1 (stereo not given) | inconclusive [inhibitor, single point] | –
CCc1nnc(NC(=O)CSc2nc(-c3ccccc3)cc(-c3ccc(F)cc3)c2C#N)s1 | inactive | –
Nc1ccc2c(c1)OC1(CCCCC1)O2 | inconclusive [inhibitor, partial curve] | –
O=C(Nc1cccc(Br)c1)c1ccc2nc(N3C(=O)CCC3=O)sc2c1 | inconclusive [inhibitor, partial curve] | –
COc1ccc(NC(=S)NCCc2ccc(Cl)cc2)c(OC)c1 | inconclusive [inhibitor, partial curve] | –
O=[N+]([O-])c1cccnc1-n1cnc2ccccc21 | inactive | –
CCN(CC)c1ccc(NC(=O)COC(=O)CCc2cc(OC)c(OC)c(OC)c2)cc1 | inconclusive [inhibitor, partial curve] | –
CCc1cccc2sc(N3CCN(C(=O)c4ccc([N+](=O)[O-])o4)CC3)nc12 | inconclusive [inhibitor, partial curve] | –
CCCn1nnc(NC(=O)c2ccc3c(c2)OCO3)n1 | inactive | –
COc1ccc(N2CCN(C(=O)c3ccccc3Br)CC2)c([N+](=O)[O-])c1 | inconclusive [inhibitor, partial curve, poor fit] | –

SMILES | Potency | activity change, negative = inhibition
OC1=C(O)c2nc3cc(F)ccc3nc21 | inconclusive [inhibitor, single point] | –
Cc1cc(OCC(=O)Nc2ccccc2N2CCCC2)ccc1C(C)C | inconclusive [inhibitor, single point] | –
COc1ccc2sc(-c3ccccc3OC)c(-c3ccc(OCCN4CCOCC4)cc3)c2c1 | inconclusive [inhibitor, partial curve] | –
COc1ccc(Nc2nc3ccccc3nc2NS(=O)(=O)c2cccs2)cc1 | inconclusive [inhibitor, single point] | –
CC(/C=N/NC(=O)c1cc(-c2ccncc2)nc2ccccc12)=C\c1ccco1 | inactive | –
Cc1cc(C(=O)Nc2ccc(Nc3ccccc3)cc2)ccc1[N+](=O)[O-] | inconclusive [inhibitor, partial curve] | –
Cc1c(Cl)cccc1NC(=O)CC1Oc2ccccc2NC1=O (stereo not given) | inactive | –
CCN(CC)c1ccc(NS(=O)(=O)c2ccc3c(c2)oc(=O)n3C)c(C)c1 | inconclusive [inhibitor, partial curve] | –
O=C(CCN1C(=O)c2cccnc2C1=O)NC1CCCCCC1 | inconclusive [inhibitor, partial curve] | –
COc1ccc(C(=O)CSc2nnc(-c3cccnc3)n2Cc2ccco2)cc1 | inactive | –
COc1cc(C)ccc1OC(C)C(=O)Nc1ccc(N2CCCCC2)cc1 (stereo not given) | inconclusive [inhibitor, partial curve] | –
O=C(O)CCc1ccc(-c2ccc(Cl)cc2)n1CCC(=O)O | inactive | –
O=C(C[n+]1ccc(-c2cc(C(=O)Nc3cccc(C(F)(F)F)c3)c3ccccc3n2)cc1)c1cccc([N+](=O)[O-])c1 | inconclusive [inhibitor, partial curve] | –
O=C(c1ccc(Cl)cc1)C1CCCN(Cc2ccc3c(c2)OCCO3)C1 (stereo not given) | inconclusive [inhibitor, single point] | –
Cc1ccc2c(c1)c1c3n2CCN(C(=O)C2CC2)C3CCC1 (stereo not given) | inconclusive [inhibitor, single point] | –
CN1CCC(OC(=O)c2ccccc2Cl)CC1 | inconclusive [inhibitor, full curve] | –
COc1ccc(C2CC(C(F)(F)F)n3nc(CO)c(Cl)c3N2)cc1OC (stereo not given) | inconclusive [inhibitor, full curve, poor fit] | –
COc1ccc2c(CC(=O)OCC(=O)Nc3cc(C)c(C)cc3[N+](=O)[O-])coc2c1 | inconclusive [inhibitor, partial curve] | –
Cc1nc2sc(C(c3cccc(F)c3)N3CCC(C)CC3)c(O)n2n1 (stereo not given) | inconclusive [inhibitor, single point] | –
O=C(/C=C/c1ccc(Cl)cc1)N1CCN(c2ccc(Cl)cc2[N+](=O)[O-])CC1 | inconclusive [inhibitor, partial curve] | –
O=C(Nc1ccc(Nc2ccccc2)cc1)c1ccc(Br)o1 | inconclusive [inhibitor, partial curve] | –
COCc1c(C(=O)N(C)Cc2ccccc2N2CCCC2)oc2ccccc12 | inconclusive [inhibitor, partial curve] | –
